Assay results published in paper PMC12820563.
This is one part of the list. The list includes weakly bound sequences.

Each sequence was assayed against T1, MBP-FoxP3dN (UniProt Q99JB6) (assay: PD-seq (MBP pull-down with sequencing)). Conditions: 20 mM Tris-HCl pH 7.5, 100 mM NaCl, 1.5 mM MgCl2, 0.4 uM protein, 0.1 uM dsDNA library, 30 min, room temperature, amylose pull-down; high values mean tight binding; double strand, one strand shown.
T1 sequence: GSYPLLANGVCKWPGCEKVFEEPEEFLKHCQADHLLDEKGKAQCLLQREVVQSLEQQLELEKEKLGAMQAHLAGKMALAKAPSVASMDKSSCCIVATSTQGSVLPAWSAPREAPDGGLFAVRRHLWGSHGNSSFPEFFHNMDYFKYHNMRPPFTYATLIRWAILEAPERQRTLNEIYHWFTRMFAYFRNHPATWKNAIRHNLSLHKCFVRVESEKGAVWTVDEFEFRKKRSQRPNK
For “GATGATTGTTCTCCCAGCTGATGAATTAGCGTCTTCGAGTAAACAAATTTTCCTAATCTTTCTGTTCAAGCGCCATCTAC”, the binding signal (RPM ratio (pull-down/input)) was 1.21. “GATGATTGTTCTCCCAGCTGATGAATTTGTCCAATCGAGTAAACAAATTTTCCTAATCTTTCTGTTCAAGCGCCATCTAC” gave a binding signal (RPM ratio (pull-down/input)) of 0.789. “GATGATTGTTCTCCCAGCTGATGAATTACCCTCGTCGAGTAAACAAATTTTCCTAATCTTTCTGTTCAAGCGCCATCTAC” showed a binding signal (RPM ratio (pull-down/input)) of 0.332. In the case of “GATGATTGTTCTCCCAGCTGATGAATTCTCGTCATCGAGTAAACAAATTTTCCTAATCTTTCTGTTCAAGCGCCATCTAC”, the binding signal (RPM ratio (pull-down/input)) is reported as 0.415. “GATGATTGTTCTCCCAGCTGATGAATTGCAACAATCGAGTAAACAAATTTTCCTAATCTTTCTGTTCAAGCGCCATCTAC” was tested, and the binding signal (RPM ratio (pull-down/input)) was 7.74. With “GATGATTGTTCTCCCAGCTGATGAATTCAGGTTATCGAGTAAACAAATTTTCCTAATCTTTCTGTTCAAGCGCCATCTAC” the binding signal (RPM ratio (pull-down/input)) was 0.656. “GATGATTGTTCTCCCAGCTGATGAATTCATCTACTCGAGTAAACAAATTTTCCTAATCTTTCTGTTCAAGCGCCATCTAC” gave a binding signal (RPM ratio (pull-down/input)) of 0.562. “GATGATTGTTCTCCCAGCTGATGAATTTCTGTTCTCGAGTAAACAAATTTTCCTAATCTTTCTGTTCAAGCGCCATCTAC” was tested, and the binding signal (RPM ratio (pull-down/input)) was 0.518. Sequence “GATGATTGTTCTCCCAGCTGATGAATTGTATATCTCGAGTAAACAAATTTTCCTAATCTTTCTGTTCAAGCGCCATCTAC” has a binding signal (RPM ratio (pull-down/input)) of 3.03. “GATGATTGTTCTCCCAGCTGATGAATTATTATGTTCGAGTAAACAAATTTTCCTAATCTTTCTGTTCAAGCGCCATCTAC” showed a binding signal (RPM ratio (pull-down/input)) of 1.3. With “GATGATTGTTCTCCCAGCTGATGAATTTGTTGCCTCGAGTAAACAAATTTTCCTAATCTTTCTGTTCAAGCGCCATCTAC” the binding signal (RPM ratio (pull-down/input)) was 7.02. “GATGATTGTTCTCCCAGCTGATGAATTCGCTAATTCGAGTAAACAAATTTTCCTAATCTTTCTGTTCAAGCGCCATCTAC” showed a binding signal (RPM ratio (pull-down/input)) of 0.295. In the case of “GATGATTGTTCTCCCAGCTGATGAATTGTACTGGTCGAGTAAACAAATTTTCCTAATCTTTCTGTTCAAGCGCCATCTAC”, the binding signal (RPM ratio (pull-down/input)) is reported as 0.401. Sequence “GATGATTGTTCTCCCAGCTGATGAATTATGGGCTTCGAGTAAACAAATTTTCCTAATCTTTCTGTTCAAGCGCCATCTAC” has a binding signal (RPM ratio (pull-down/input)) of 0.459. For “GATGATTGTTCTCCCAGCTGATGAATTCTGGCTTTCGAGTAAACAAATTTTCCTAATCTTTCTGTTCAAGCGCCATCTAC”, the binding signal (RPM ratio (pull-down/input)) was 0.896. In the case of “GATGATTGTTCTCCCAGCTGATGAATTGAGATATTCGAGTAAACAAATTTTCCTAATCTTTCTGTTCAAGCGCCATCTAC”, the binding signal (RPM ratio (pull-down/input)) is reported as 0.723. “GATGATTGTTCTCCCAGCTGATGAATTCCGCATGTCGAGTAAACAAATTTTCCTAATCTTTCTGTTCAAGCGCCATCTAC” was tested, and the binding signal (RPM ratio (pull-down/input)) was 5.82. “GATGATTGTTCTCCCAGCTGATGAATTGCAAGAATCGAGTAAACAAATTTTCCTAATCTTTCTGTTCAAGCGCCATCTAC” gave a binding signal (RPM ratio (pull-down/input)) of 0.396.
